Test results as given in PubChem BioAssay AID1487 (National Center for Advancing Translational Sciences (NCATS), 2009).
Out of some 200,000 compounds screened, about 25 (0.01%) were called active. Another 23% or so got no clear call; they are omitted. Calls follow the shape of the dose curve; as a rule, active = well fitted inhibition curve with a large enough effect in the signal ratio, with a control signal flat (not every such curve was filed as active); inconclusive = small, poorly fitted or top-dose-only effect, or effect the other way, or a change in a side signal; inactive = flat fitted curve, though single readings scatter; the % refers to the signal ratio. This is a selection; strong and weak results do not stand in their true shares.

Test: qHTS Assay for Modulators of Lamin A Splicing
Conditions: HeLa LMNA splicing GFP/RFP minigene ratio, 48 h; series mostly up to 46.1 µM; ratio change, negative = inhibition: at the top concentration
Summary of the method: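 Read-out is the ratio of GFP to DsRed2 object intensity, acquired by 488 nm laser-scanning cytometry on HeLa lamin A-EGFP minigene reporter cells. Compound incubation 48 hrs at 37 °C in Opti-MEM with 2% FBS; DMSO 0.5% final.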
% is scaled to controls: 0 for no effect and ±100 for the full control effect.

Ratio change, negative = inhibition, inactive:
CC(C)CCN(C(=O)Nc1ccccc1)C(C)c1cccs1 (stereo not given) -7%, CC(C)n1cc(/C=C2\NC(=O)N(c3cccc(Cl)c3)C2=O)c2ccccc21 -27.2%, Cc1c(C)c2c(c(C)c1O)CC[C@@](C)(CCC[C@@H](C)CCC[C@@H](C)CCCC(C)C)O2 -3.04%, CN(C)CC[C@H](c1ccc(Cl)cc1)c1ccccn1 -6.98%, COc1ccccc1NC(=O)/C=C/C(=O)O 5.36% [at 46 µM], CN(C)CCCN1c2ccccc2CCc2ccc(Cl)cc21 -7.77%, CC(=O)OCC(=O)[C@@]1(OC(C)=O)[C@H](C)C[C@H]2[C@@H]3C[C@H](F)C4=CC(=O)C=C[C@@]4(C)[C@]3(F)[C@H](O)C[C@@]21C 5.8%, CCOC(=O)Nc1ccc2c(c1)N(C(=O)CCN1CCOCC1)c1ccccc1S2 -29.1% [at 46 µM], Cc1ccc(C(=O)C[n+]2cc(-c3ccccc3)n3c2CCCCC3)cc1 -18.4%, O=C(NCc1ccccn1)[C@@H]1C[C@H]1[C@@H](NP(=O)(c1ccccc1)c1ccccc1)c1ccccc1 8.74%, Nc1ccc(S(=O)(=O)NC(=O)c2ccccc2)cc1 -3.43%, CCN1C(=O)/C(=C2/Sc3ccccc3N2CCCS(=O)(=O)O)SC1=S -5.76% [at 46 µM], CC(C)NC[C@H](O)c1ccc(NS(C)(=O)=O)cc1 2.67%, O=C1OC(c2ccc(O)cc2)(c2ccc(O)cc2)c2ccccc21 -16.3%, CN(C)C1C(=O)C(C(N)=O)=C(O)[C@@]2(O)C(=O)C3=C(O)c4c(O)ccc(Cl)c4[C@@H](O)C3C[C@@H]12 (stereo not given in full) -18%, Cc1c(Cl)cccc1Nc1ccccc1C(=O)O -9.26%, c1ccc(CC2=NCCN2)cc1 6.87%, O=C(O)CCc1nc(-c2ccccc2)c(-c2ccccc2)o1 -6.19%, O=C1c2ccccc2C(=O)C1c1ccccc1 -12.9%, C=C(C)[C@H]1CC=C(C)/C(=N/NC(=O)CNc2ccccc2OC)C1 4.16%, CCOC(=O)N1CCC(=C2c3ccc(Cl)cc3CCc3cccnc32)CC1, C[C@]12CCC(=O)C=C1CC[C@@H]1[C@@H]2C(=O)C[C@@]2(C)[C@H]1CC[C@]2(O)C(=O)CO, CCOC(=O)OC(C)OC(=O)C1N2C(=O)C(NC(=O)C(N)c3ccccc3)C2SC1(C)C (stereo not given) -5.27%, O=C(O)/C=C\C(=O)NCc1ccccc1 10.4%, O=S(=O)(O)C1CCNCC1 -6.03%, CN1C2CCC1CC(OC(=O)c1c[nH]c3ccccc13)C2 (stereo not given), O=C(O)Cc1ccc(-c2ccccc2)cc1 -0.922%, Cc1cncn1CCc1nc2c3ccccc3nc(SCC(=O)Nc3cccc(Cl)c3)n2n1 -9.22% [at 46 µM], CCN(CC)CCOC(=O)C1(C2CCCCC2)CCCCC1, CN(C)CCCN1c2ccccc2Sc2ccc(C(F)(F)F)cc21, COc1cc(C(=O)OCCCN2CCCN(CCCOC(=O)c3cc(OC)c(OC)c(OC)c3)CC2)cc(OC)c1OC -24.3%, COC(=O)C1=C(C)NC(C)=C([N+](=O)[O-])C1c1ccccc1C(F)(F)F (stereo not given) -6.86%, CCCCN(CCCC)CCCOC(=O)c1ccc(N)cc1 -2.44%, CC(=O)NC(CC(=O)O)C(=O)NC(CCC(=O)O)C(=O)O (stereo not given) -7.97%, CCCc1cc(C(N)=S)ccn1 -3.69%, NNCCc1ccccc1 -2.26%, CN1CCN(CC/C=C2/c3ccccc3Sc3ccc(S(=O)(=O)N(C)C)cc32)CC1, CN1CCC(=C2c3ccccc3C=Cc3ccccc32)CC1 -22.3%, Cc1ccsc1/C=C/C1=NCCCN1C -8.95%, OC(CCCN1CCCCC1)(c1ccccc1)c1ccccc1 -9.43%, CCN(CC)CCOC(=O)C(c1ccccc1)c1ccccc1 -0.688%, Oc1c(C=C2N=c3ccccc3=N2)sc(=S)n1C1CCCCC1 -10%, NC(N)=Nc1nc(CSCC/C(N)=N/S(N)(=O)=O)cs1 -4.01%, Cc1cc(-c2ccccc2)nnc1NCCN1CCOCC1 -11.5%, N[C@H](C(=O)N[C@@H]1C(=O)N2C(C(=O)O)=C(Cl)CS[C@@H]12)c1ccccc1 -17.6%, O=C(N/C(=C/c1cccs1)C(=O)N1CCOCC1)c1cccs1 -1.64% [at 46 µM], CC(=O)c1cc2c(cc1N/C(=N/S(=O)(=O)c1ccc(C)cc1)c1ccc(Cl)cc1)OCO2 -5.98% [at 46 µM], CCCCOc1cc(CC2CNC(=O)N2)ccc1OC (stereo not given) 18.7%, Cc1onc(-c2c(F)cccc2Cl)c1C(=O)N[C@H]1C(=O)N2[C@H]1SC(C)(C)[C@H]2C(=O)O -9.53%, Cc1ccc(C(=O)N/C(=C/c2ccc(-c3ccc(Br)cc3)o2)C(=O)NC2CCS(=O)(=O)C2)cc1 (stereo not given) -5.35%, CN1Cc2c(N)cccc2C(c2ccccc2)C1 (stereo not given) 5.27%, Nc1c2c(nc3ccccc13)CCCC2O (stereo not given) 3.21%, COc1ccccc1OCC(O)COC(N)=O (stereo not given) -1.16%, CC[C@@H]1OC(=O)[C@H](C)[C@H](O[C@@H]2C[C@](C)(OC)[C@H](O)[C@H](C)O2)[C@H](C)[C@H](O[C@@H]2O[C@@H](C)C[C@@H](N(C)C)[C@@H]2O)[C@](C)(O)C[C@H](C)[C@@H]2N[C@H](COCCOC)O[C@H]([C@@H]2C)[C@]1(C)O -14.3%, CCCC(=O)OC1CC(C)N(C(=O)c2ccccc2)c2ccc(C)cc21 (stereo not given) -21.2%, CC(=O)OCC(=O)[C@@]1(OC(C)=O)[C@@H](C)C[C@H]2[C@@H]3C[C@H](F)C4=CC(=O)C=C[C@]4(C)[C@@]3(F)[C@@H](O)C[C@@]21C -1.32%, CC(N=C(NC#N)Nc1ccncc1)C(C)(C)C (stereo not given) -3.99%, c1ccc(CN(CC2=NCCN2)c2ccccc2)cc1, COC(=O)[C@@H]1[C@@H]2C[C@H]3c4[nH]c5cc(OC)ccc5c4CCN3C[C@@H]2C[C@H](OC(=O)c2cc(OC)c(OC)c(OC)c2)[C@H]1OC -13.7%, O=C(O)CN(CCN(CC(=O)O)CC(=O)O)CCN(CC(=O)O)CC(=O)O -16.7%, COc1ccccc1N1CCN(CCCNc2cc(=O)n(C)c(=O)n2C)CC1, CCC(C)n1ncn(-c2ccc(N3CCN(c4ccc(OCC5COC(Cn6cncn6)(c6ccc(Cl)cc6Cl)O5)cc4)CC3)cc2)c1=O (stereo not given) -0.607% [at 46 µM], Cc1cccc(Nc2ccccc2C(=O)O)c1C 5.58%, Fc1ccc([C@@H]2CCNC[C@H]2COc2ccc3c(c2)OCO3)cc1 -16.8% [at 46 µM], Cc1cc(C)c(NC(=O)Cn2cnc3c(oc4ccccc43)c2=O)c(C)c1 -4.12% [at 46 µM]
